Results: PMC12040169 (PLOS Biology, 2025)
Some of the results follow.

What follows are compounds tested on T1, C. trachomatis L2/434/Bu expressing GFP (CTL2-GFP). Settings: total inclusion area; 28.5 h, 10 µM; inhibitor.
T1 construct: L2/434/Bu GFP intracellular growth in HeLa cells
Parameters: species or system HeLa; C. trachomatis total inclusion area by high-content imaging, normalised to DMSO
Outline: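 Imaging read-out: GFP inclusions and Hoechst nuclei captured by high-content imaging after fixation. Inclusion area/number = chlamydial growth; nuclei count = host cell viability. MIC calculated per earlier method.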

Going from `CN1CCN(S(=O)(=O)c2ccc(-c3cnc(N)c(-c4ccc(O)cc4)n3)cc2F)CC1` [CBK131449] to `N#C/C(=C\c1cn(-c2ccccc2)nc1-c1cccc(S(=O)(=O)N2CCOCC2)c1)c1nc2ccccc2c(=O)[nH]1` [CBK266357], the “% of control remaining” value rises from 79.8344 to 127.135.

Compared with `N/N=C1\C2CN3CCN(C2)CC1(Cc1ccccc1)C3` [CBK261977], `Cn1ccnc1C1(O)CCN(C(=O)CCc2ccccc2)CC1` [CBK283542] is lower in “% of control remaining” value: 112.944 for the first, 94.6947 for the second.

Going from `CCCCN1CC(=O)C(c2nc3ccccc3[nH]2)=C1N` [CBK287777] to `O=C1CC(c2cccs2)Sc2nc3ccccc3n21` (centres unmarked) [CBK091627], the “% of control remaining” value rises from 82.5663 to 92.5545.

First: Cc1ccc(NC(=O)/C(C#N)=C/c2ccc(-c3ccccc3C(=O)O)o2)cc1Cl [CBK263208]
Second: COc1ccc(C(=O)O)cc1NC(=S)NC(=O)c1ccc(-c2cc(Cl)ccc2Cl)o1 [CBK265074]
The “% of control remaining” value of the first is lower: 44.1578 for the first, 123.957 for the second.

Compared with `C=CCN1C(=O)CC2(C1=O)C(=O)N(C)c1ccc(Cl)cc12` (centres unmarked) [CBK075242], `COc1ccc2c(c1)C1(CC(=O)N(CC3CCCCC3)C1=O)C(=O)N2C` (centres unmarked) [CBK075201] is higher in “% of control remaining” value: 101.337 for the first, 101.526 for the second.

Compared with `Clc1ccc(-c2nc(-c3ccncc3)no2)c(Cl)c1` [CBK262615], `Clc1cccc(-c2cc(NCc3cccs3)n3nccc3n2)c1` [CBK037238] is higher in “% of control remaining” value: 93.9366 for the first, 103.59 for the second.

Compared with `O=C(NCCc1c[nH]c2ccccc12)c1cc(Br)cnc1N1CCOCC1` [CBK076224], `CCc1nc2ccc(C(=O)NCCN3CCOCC3)cn2c1N(C)Cc1cc2ccccc2s1` [CBK146561] is lower in “% of control remaining” value: 110.931 for the first, 94.1239 for the second.

Compared with `COc1ccc(C(=O)N2CCC3(CCN(CCCCC4NC(=O)NC4=O)C3)C2)cc1OC` (centres unmarked) [CBK132169], `COc1ccc(NC(=O)c2ccc(CN3CCOCC3)cc2)c(OC)c1` [CBK263790] is lower in “% of control remaining” value: 105.069 for the first, 103.605 for the second.

Compared with `O=c1[nH]c(=O)c2cc(S(=O)(=O)N3CCc4[nH]c5ccccc5c4C3)ccc2[nH]1` [CBK285949], `O=C(c1ccc(OC(F)F)cc1)N1CCCc2cc(S(=O)(=O)N3CCCCC3)ccc21` [CBK295621] is higher in “% of control remaining” value: 99.5682 for the first, 100.164 for the second.

Compared with `COc1ccc(OC(C)C(=O)Nc2cc3oc4ccccc4c3cc2OC)cc1` (centres unmarked) [CBK266751], `COc1cccc(NC(=O)N2CCC(n3c(=O)n(C(=O)Nc4cccc(OC)c4)c4ccccc43)CC2)c1` [CBK149177] is higher in “% of control remaining” value: 61.1498 for the first, 77.2903 for the second.

Compared with `OC(CN1CCN(c2ccc(C(F)(F)F)cn2)CC1)c1ccc2c(c1)OCCO2` (centres unmarked) [CBK074707], `COc1ccc(CN2CCN(c3nccnc3OC)CC2)cc1` [CBK084216] is higher in “% of control remaining” value: 83.3466 for the first, 91.9344 for the second.

Going from `COc1ccc(OC)c(C(O)CN2CCCC(C(=O)N3CCCCCC3)C2)c1` (centres unmarked) [CBK286286] to `CCOc1cc(C(=S)N2CCCCC2)ccc1OC(=O)c1ccccc1Cl` [CBK019660], the “% of control remaining” value rises from 85.2275 to 94.6757.

Going from `Cc1ccc(S(=O)(=O)NC(=O)N2CC3(C)CC2CC(C)(C)C3)cc1` (centres unmarked) [CBK023512] to `CCCCNS(=O)(=O)c1ccc(OCC(=O)O)cc1` [CBK268550], the “% of control remaining” value rises from 82.3047 to 88.0928.

First: O=C(NC1CCS(=O)(=O)C1)c1cc(-c2cccnc2)cnc1NCc1ccc2c(c1)OCO2 (centres unmarked) [CBK076455]
Second: OCCc1ccc(Nc2cc(-c3cccnc3)ncn2)cc1 [CBK090768]
The “% of control remaining” value of the first is higher: 102.501 for the first, 94.2509 for the second.

Compared with `Cc1ccc(NC2=NC(C(=O)Nc3ccc(C)c(C)c3)CC(=O)N2)cc1` (centres unmarked) [CBK266718], `CC(=O)Nc1ccc(-c2nc3cnccc3o2)cc1` [CBK287975] is lower in “% of control remaining” value: 105.735 for the first, 91.7131 for the second.

Compared with `Cc1ccc(CCC(=O)Nc2nc3c(cc2C#N)CCC3)o1` [CBK306366], `CCN1CCc2nc(NC(=O)c3ccc(Cl)cc3)sc2C1` [CBK287644] is higher in “% of control remaining” value: 13.212 for the first, 89.8325 for the second.

Compared with `CN(CC(=O)O)S(=O)(=O)c1ccc2c(c1)OCCO2` [CBK263904], `COc1ccc(C2=C(CC(=O)O)C(=O)CC2)cc1` [CBK264812] is lower in “% of control remaining” value: 111.956 for the first, 106.092 for the second.

Going from `O=C(CN1CCOCC1)N/N=C/c1ccncc1` [CBK019949] to `CC(C)NC(=O)[C@H]1O[C@H](CCN2CCOCC2)CC[C@@H]1O` [CBK288720], the “% of control remaining” value rises from 50.2807 to 124.593.

Compared with `O=C(c1ccccc1)C(Sc1nnc2sc3ccccc3n12)c1ccccc1` (centres unmarked) [CBK265416], `O=C(NCn1nnc2ccccc21)c1ccccc1` [CBK056950] is lower in “% of control remaining” value: 104.667 for the first, 62.1258 for the second.

Compared with `O=C(NCCn1ccnc1)C1CC(=O)N(c2cccc(F)c2)C1` (centres unmarked) [CBK281582], `O=C(Cc1ccccc1F)N1CCCC(c2cnccn2)C1` (centres unmarked) [CBK284601] is higher in “% of control remaining” value: 94.8421 for the first, 114.509 for the second.

Going from `Cc1ccc(O)c(Nc2ncnc3ccc(Br)cc23)c1` [CBK269028C] to `Cc1c(C(=O)N(C)C2CCNC2)nnn1-c1ccc2ncccc2c1` (centres unmarked) [CBK304698], the “% of control remaining” value falls from 100.289 to 47.6688.

Going from `O=C(O)c1nc2n(n1)C(C(F)(F)F)CC(c1cccs1)N2` (centres unmarked) [CBK026415] to `COC(=O)[C@H]1CN(C(=O)c2cccs2)C[C@@H]1c1ccc(F)cc1` [CBK283732], the “% of control remaining” value rises from 73.2318 to 82.1103.

First: Cc1cc(C)c2c(n1)sc1c(N3CCC(C(=O)O)CC3)ncnc12 [CBK300512]
Second: Cc1cc(COC(=O)N2CCSCC2)cc(C)n1 [CBK200153]
The “% of control remaining” value of the first is higher: 95.933 for the first, 95.0696 for the second.

Going from `O=C(NCCc1cccs1)Nc1ccc(F)c(F)c1` [CBK043951] to `COC(=O)c1sc2cc(NC(=S)NCc3ccc(S(N)(=O)=O)cc3)ccc2c1Cl` [CBK267094], the “% of control remaining” value rises from 86.3864 to 111.34.

Compared with `CCc1nc2sc(C(N)=O)c(N)c2c2c1CCCC2` [CBK131872], `CSc1sc(C(=O)CC#N)c2c1C=CCC2` [CBK006004] is lower in “% of control remaining” value: 118.085 for the first, 80.7933 for the second.

First: Nc1nnc(SCCC(=O)N2CCN(c3ccc(F)cc3)CC2)s1 [CBK304597]
Second: CC(=O)N1CCN(c2nnc(-c3ccccc3)o2)CC1 [CBK170332]
The “% of control remaining” value of the first is lower: 55.9154 for the first, 81.4536 for the second.

Compared with `CC(C)(C)c1ccc(COn2c(=O)c(-c3ccccc3Cl)[n+]([O-])c3ccccc32)cc1` [CBK267494], `CC1(C)C(N(O)C(=O)Nc2cccc3ccccc23)N(c2cccc3ccccc23)C(=O)N1CC(=O)NN` (centres unmarked) [CBK261004] is lower in “% of control remaining” value: 101.163 for the first, 96.6898 for the second.

Compared with `O=S(=O)(NCc1ccc(C(F)(F)F)c(F)c1)c1cccc2nsnc12` [CBK062113], `COCCNc1nccnc1-c1cccc(C(F)(F)F)c1` [CBK037330] is lower in “% of control remaining” value: 104.019 for the first, 54.9433 for the second.

Going from `Cc1ncncc1C(=O)N1CCCCC1CCc1ccccc1` (centres unmarked) [CBK282264] to `CN(Cc1nc(-c2ccccc2)no1)C(=O)COCC1CCCCO1` (centres unmarked) [CBK307643], the “% of control remaining” value falls from 99.0117 to 62.3724.

First: O=C(Cn1c(C2CCNCC2)cc2cccnc21)NC1CCCC1 [CBK285002]
Second: Cc1nn(CC(=O)N2CCCCC2)c(=O)c2cc3ccsc3n12 [CBK284078]
The “% of control remaining” value of the first is lower: 96.8877 for the first, 109.126 for the second.

Compared with `CC1Oc2ccccc2OC1C(=O)Nc1nnc(Cc2ccccc2)s1` (centres unmarked) [CBK295634], `CN(C)CCN(C)c1cncc(-c2cccc3ccccc23)n1` [CBK065709] is higher in “% of control remaining” value: 77.3503 for the first, 137.201 for the second.

Going from `COc1ccc(OCCN2CCC3(CC2)CN(S(C)(=O)=O)c2ccccc23)cc1` [CBK126681] to `COc1ccc(C2CCCN2S(=O)(=O)c2ccccc2[N+](=O)[O-])cc1OC` (centres unmarked) [CBK295309], the “% of control remaining” value rises from 0.02868 to 85.0576.

Compared with `CCOC(=O)CC(=O)CSc1nc(C)cc(-c2cccs2)c1C#N` [CBK267446], `COC(=O)c1sc(NC(=O)C2CC2)c(C#N)c1C` [CBK026049] is lower in “% of control remaining” value: 112.802 for the first, 73.9464 for the second.

First: CCCc1cc(=O)n2c(n1)SCOC2 [CBK010967]
Second: CCc1cc(CNC(=O)C2CC3C=CC2C32CC2)on1 (centres unmarked) [CBK282071]
The “% of control remaining” value of the first is lower: 44.539 for the first, 85.7335 for the second.

First: CC(CCCC(C)(C)O)Nc1cncc(-c2ccccc2CO)n1 (centres unmarked) [CBK065529]
Second: Cc1cccc(OCCCn2cncc2-c2cn(C)nc2C)c1 [CBK281766]
The “% of control remaining” value of the first is lower: 102.793 for the first, 115.045 for the second.

Going from `O=C1NC2(CCCCC2)C(=O)N1Cc1cnn(-c2ccccc2)n1` [CBK305570] to `CC(=O)N[C@H](Cc1c[nH]c2ccccc12)C(=O)N1CC[C@H]2NC(=O)[C@H](Cc3ccccc3)NC(=O)C3(C/C=C/C[C@H]2C1)CCOCC3` [CBK292205], the “% of control remaining” value rises from 90.4462 to 93.6471.

Going from `Cn1cnnc1CNC(=O)N1CCN(Cc2cccs2)CC1` [CBK305045] to `CSc1nnc(C2CCCN2C(=O)[C@@H]2C[C@@H]3C=C[C@H]2C3)n1C` (some centres unmarked) [CBK282012], the “% of control remaining” value rises from 85.7021 to 111.39.

First: CC(=O)Nc1cccc(C(C)NC(=O)N(C)C2CCc3ccccc32)c1 (centres unmarked) [CBK306251]
Second: O=C(O)c1ccc(NC(=S)NC(NC(=O)c2ccco2)C(Cl)(Cl)Cl)cc1 (centres unmarked) [CBK261025]
The “% of control remaining” value of the first is lower: 80.6705 for the first, 88.4148 for the second.

Compared with `Cc1cccc2cc(/C=C(\C#N)c3nc(-c4cc5ccccc5oc4=O)cs3)c(Cl)nc12` [CBK261642], `Cc1noc(C)c1NC(=O)c1cc2ccccc2n1C` [CBK200311] is higher in “% of control remaining” value: 94.8993 for the first, 140.925 for the second.

Going from `Cc1cc(CN(C)c2nccc(N3CCN[C@H]4CS(=O)(=O)C[C@H]43)n2)no1` [CBK306580] to `CCOC(=O)N/N=C(/C)C(C)(C)C` [CBK016460], the “% of control remaining” value rises from 47.9969 to 106.585.
